The full ranking holds about 33,000 sequences; the median of “E-score (-0.5 to 0.5)” is about -0.01, and the highest 2% start at about 0.26. The list shows a part of the results.
Each sequence was assayed against Ste12 (UniProt P13574) (assay: PBM E-score (8-mer binding enrichment) (E-score (-0.5 to 0.5)); higher = stronger / more preferred TF binding; most listed sequences are background and not binding sites). Conditions: protein concentration: 200 nM; construct: GST-DNA-binding domain.
Method in brief: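 Full-length yeast transcription factors or their DNA-binding domains, GST-tagged and expressed with PURExpress, were applied at about 100-200 nM to universal all-10-mer Agilent arrays. These arrays had been made double-stranded by primer extension on fresh or once-stripped slides. Detection used fluorescent anti-GST, normalisation used masliner, and E-scores for ungapped eight-base words pooled with reverse complements came from the Universal PBM Analysis Suite.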
In the case of AAAATCAA, the “PBM E-score” value is reported as 0.146. GGAACGCC was tested, and the “PBM E-score” value was -0.017. In the case of ACGGCCTG, the “PBM E-score” value is reported as -0.105. In the case of CCACCTGA, the “PBM E-score” value is reported as 0.145. GCAGCTCA was tested, and the “PBM E-score” value was -0.172. For CAGCGATC, the “PBM E-score” value was -0.00075. TGATAACA was tested, and the “PBM E-score” value was 0.137. For ACTGCGTG, the “PBM E-score” value was -0.191. With GCAATCTA the “PBM E-score” value was -0.0416. In the case of TAAAGAGA, the “PBM E-score” value is reported as 0.0126. In the case of GTCACTCA, the “PBM E-score” value is reported as 0.0601. With CAGGCGGA the “PBM E-score” value was 0.0481. With GATTGGAC the “PBM E-score” value was -0.0765. ATCCGTCG was tested, and the “PBM E-score” value was -0.0398. For TAATCCCA, the “PBM E-score” value was -0.00372. With CCTAGAAC the “PBM E-score” value was 0.0121. CCTATCTA was tested, and the “PBM E-score” value was -0.0667. For AAAACCAG, the “PBM E-score” value was 0.228. ATGGAATA was tested, and the “PBM E-score” value was 0.117. For CGCCTCAG, the “PBM E-score” value was -0.0219. ATTTGATC was tested, and the “PBM E-score” value was 0.0321. With AATACCCC the “PBM E-score” value was 0.036. In the case of CCACTAAA, the “PBM E-score” value is reported as 0.0683. With ACAACGCA the “PBM E-score” value was 0.0218. For AGTTGGAG, the “PBM E-score” value was -0.0262. For GCAACCAC, the “PBM E-score” value was 0.0313. With ACCCATTG the “PBM E-score” value was -0.00501. For ACGTTGCC, the “PBM E-score” value was -0.202. For CTGGTCTC, the “PBM E-score” value was -0.259. In the case of GAACTGAC, the “PBM E-score” value is reported as -0.0881. ATATTGCG was tested, and the “PBM E-score” value was 0.148. With ACTCATTA the “PBM E-score” value was 0.136. ACAGAGCA was tested, and the “PBM E-score” value was 0.156. In the case of GTCCTCGA, the “PBM E-score” value is reported as -0.18. For AATATCTC, the “PBM E-score” value was 0.127. For CAACGCGC, the “PBM E-score” value was 0.00398. For AGCAACAA, the “PBM E-score” value was 0.0907. In the case of ACGGTGAT, the “PBM E-score” value is reported as -0.122. AAAGCACA was tested, and the “PBM E-score” value was 0.028. With GGTTACAA the “PBM E-score” value was 0.284. For AATACATA, the “PBM E-score” value was 0.218. For AACGGGCG, the “PBM E-score” value was -0.0159. For AACCTGCA, the “PBM E-score” value was 0.0338. With GGATAAAC the “PBM E-score” value was 0.135. For AAACTAGC, the “PBM E-score” value was -0.0237. In the case of GAGAATAA, the “PBM E-score” value is reported as 0.182. CCCCGTGA was tested, and the “PBM E-score” value was -0.0997. CGCAGGTC was tested, and the “PBM E-score” value was -0.144. For AAGAAATC, the “PBM E-score” value was -0.0981. In the case of CATTAGAC, the “PBM E-score” value is reported as -0.0855. For GCTCATGA, the “PBM E-score” value was -0.145. For GAGGGGTA, the “PBM E-score” value was 0.0428. AGAGCGAA was tested, and the “PBM E-score” value was -0.099. CTGAGACC was tested, and the “PBM E-score” value was 0.152. In the case of GATCTCAA, the “PBM E-score” value is reported as 0.077. In the case of ACTGGCAC, the “PBM E-score” value is reported as -0.162. In the case of AGTGCCAA, the “PBM E-score” value is reported as -0.0734. In the case of GGATGGCC, the “PBM E-score” value is reported as -0.313. In the case of AGCGAGTA, the “PBM E-score” value is reported as 0.021. In the case of ATACCTAA, the “PBM E-score” value is reported as 0.179. ATACGCCG was tested, and the “PBM E-score” value was 0.204. For TATAAATA, the “PBM E-score” value was 0.228. In the case of GGGTTTAC, the “PBM E-score” value is reported as -0.0107. CCAGGAAG was tested, and the “PBM E-score” value was -0.122. With GCTAGTAC the “PBM E-score” value was -0.173. With AACTGTAT the “PBM E-score” value was 0.134. For CCTCATAG, the “PBM E-score” value was -0.0735. In the case of AGAGGCAG, the “PBM E-score” value is reported as -0.14. In the case of AATAGTGA, the “PBM E-score” value is reported as 0.00582. With AGCACGTG the “PBM E-score” value was -0.122. With AGGGAGTG the “PBM E-score” value was -0.107. With ACTAGCCC the “PBM E-score” value was -0.00126. For TCATCGCA, the “PBM E-score” value was 0.0489. In the case of CTGGCTCC, the “PBM E-score” value is reported as -0.256. For AGAGCCTC, the “PBM E-score” value was -0.172. In the case of ACGGGAAG, the “PBM E-score” value is reported as -0.144. For GTTCCTTA, the “PBM E-score” value was -0.0482. For CAGAGTAA, the “PBM E-score” value was -0.0561. With CAGAGATA the “PBM E-score” value was 0.00937. AATGCGTC was tested, and the “PBM E-score” value was -0.134. In the case of CGGCTACC, the “PBM E-score” value is reported as -0.156. For AAGAAAGC, the “PBM E-score” value was -0.0303. In the case of AACTCCGT, the “PBM E-score” value is reported as 0.0594. AGTTCGAT was tested, and the “PBM E-score” value was -0.117. AATGGGGG was tested, and the “PBM E-score” value was -0.187. In the case of ACAGCCAT, the “PBM E-score” value is reported as 0.0226. In the case of AGAATGGC, the “PBM E-score” value is reported as -0.0721. In the case of ACAACACA, the “PBM E-score” value is reported as 0.138. With CAACCGAA the “PBM E-score” value was 0.0797. For GCGGGTAC, the “PBM E-score” value was -0.0992. With ACGGTAAG the “PBM E-score” value was -0.0485. For AAGGGACC, the “PBM E-score” value was -0.132. For AACGAAAT, the “PBM E-score” value was 0.169. For AGGCAACT, the “PBM E-score” value was 0.0276. With TATCCTCA the “PBM E-score” value was -0.0222. In the case of AACTCAAA, the “PBM E-score” value is reported as 0.266. With AAGCGACG the “PBM E-score” value was -0.144. In the case of ATCTGTAG, the “PBM E-score” value is reported as -0.0894. For TACACGGA, the “PBM E-score” value was 0.153. In the case of GCCACAGC, the “PBM E-score” value is reported as -0.299. GCAGTACC was tested, and the “PBM E-score” value was -0.0188. With CAGGGCAC the “PBM E-score” value was -0.139. CGATGGCC was tested, and the “PBM E-score” value was -0.0786. With CTCGACTA the “PBM E-score” value was 0.0414. AGGGGCCA was tested, and the “PBM E-score” value was 0.019. In the case of AGTAATAG, the “PBM E-score” value is reported as 0.0705. With TCAGATGA the “PBM E-score” value was 0.197. For CGTAAGCC, the “PBM E-score” value was 0.00046. In the case of GTAGGTGA, the “PBM E-score” value is reported as 0.0465. For CTGTACAA, the “PBM E-score” value was -0.176. For TACGGAGA, the “PBM E-score” value was -0.163. For TGACGAAA, the “PBM E-score” value was 0.219. With GATCGCGA the “PBM E-score” value was 0.0426. With GCGCTCTA the “PBM E-score” value was 0.00062. With TAACGCGA the “PBM E-score” value was 0.0877. With CCGGTAAG the “PBM E-score” value was -0.172. In the case of GGTTTCGA, the “PBM E-score” value is reported as 0.193. In the case of ATGGGGAG, the “PBM E-score” value is reported as -0.033. In the case of AGATTGTA, the “PBM E-score” value is reported as 0.166. In the case of AAAAAGCC, the “PBM E-score” value is reported as 0.229. For TATCTAAA, the “PBM E-score” value was 0.26. With AAAGGACG the “PBM E-score” value was -0.0996. For AAAAATTG, the “PBM E-score” value was 0.263. TGACTGCA was tested, and the “PBM E-score” value was -0.193. In the case of CTGGAGAC, the “PBM E-score” value is reported as -0.224. TCCTGCAA was tested, and the “PBM E-score” value was -0.166. In the case of CGTACGCA, the “PBM E-score” value is reported as -0.0563. For GGGGCGAC, the “PBM E-score” value was 0.00253. In the case of CGACATAG, the “PBM E-score” value is reported as -0.159. With TGGCATAA the “PBM E-score” value was 0.307. In the case of AACCATTC, the “PBM E-score” value is reported as -0.00154. CAATGCCA was tested, and the “PBM E-score” value was -0.01. CGTTCTTA was tested, and the “PBM E-score” value was 0.0228. For ACATCGCC, the “PBM E-score” value was 0.0237. With AATCAACT the “PBM E-score” value was 0.0774. CAAATAAC was tested, and the “PBM E-score” value was 0.283. For CGCCATAC, the “PBM E-score” value was 0.0498. For CCGAAGTA, the “PBM E-score” value was -0.157. For AGTTTTAT, the “PBM E-score” value was 0.275. TAGAAGAA was tested, and the “PBM E-score” value was 0.132. With GTGAGCTA the “PBM E-score” value was 0.116. With CCCACTAG the “PBM E-score” value was -0.222. AAAGCCAC was tested, and the “PBM E-score” value was 0.013. For AGGCCCGC, the “PBM E-score” value was 0.0381. With GTCAAAAC the “PBM E-score” value was 0.136. For GATAGTAA, the “PBM E-score” value was -0.0665. In the case of TATGTACA, the “PBM E-score” value is reported as -0.00078. In the case of CACATCGC, the “PBM E-score” value is reported as -0.0501. AAAACGTC was tested, and the “PBM E-score” value was 0.134. With ATCATCCA the “PBM E-score” value was 0.0729. TGGCCTAA was tested, and the “PBM E-score” value was -0.0815. AACCGTCT was tested, and the “PBM E-score” value was -0.0707. In the case of CAAGACCG, the “PBM E-score” value is reported as -0.0719. In the case of ACTGCCTC, the “PBM E-score” value is reported as -0.105. With CATGAGAC the “PBM E-score” value was 0.212. In the case of CTCTGAAG, the “PBM E-score” value is reported as -0.104. For ATATAAAG, the “PBM E-score” value was 0.171. GGCGCATA was tested, and the “PBM E-score” value was -0.0628. For TGCATCAA, the “PBM E-score” value was 0.0996. With AAGCATCC the “PBM E-score” value was -0.0149. CGGGCTCA was tested, and the “PBM E-score” value was -0.147. With AGCCGCCA the “PBM E-score” value was -0.272. In the case of TCACGGAA, the “PBM E-score” value is reported as 0.135. In the case of CTATTAAG, the “PBM E-score” value is reported as 0.0151. For CGGAGACC, the “PBM E-score” value was -0.101. For CTGACAGA, the “PBM E-score” value was -0.0419. GCCTAACA was tested, and the “PBM E-score” value was -0.0189. In the case of CAATGCAA, the “PBM E-score” value is reported as 0.109. With GTACCTTA the “PBM E-score” value was -0.0219. TATCAATA was tested, and the “PBM E-score” value was 0.0646. For AACCACAC, the “PBM E-score” value was 0.134. With ATTGGAAA the “PBM E-score” value was 0.142.
